{"source": "patent EP4046639A1", "about": "“PREVENTION OF PULMONARY VASCULAR LEAK IN COVID-19” (priority 2021, dated 2022)", "origin": "cited, not measured here", "system": "SARS-CoV-2", "data": [{"molecule": "Cc1ccc(NC(=O)c2ccc(CN3CCN(C)CC3)cc2)cc1Nc1nccc(-c2cccnc2)n1", "note": "[Imatinib, 4-[(4-methylpiperazin-1-yl)methyl]-N-[4-methyl-3-[(4-pyridin-3-ylpyrimidin-2-yl)amino]phenyl]benzamide]", "values": [{"measurement": "SARS-CoV-2 infection and replication", "result": "no effect"}]}, {"molecule": "O=C(Nc1ccc(OC(F)(F)Cl)cc1)c1cnc(N2CC[C@@H](O)C2)c(-c2ccn[nH]2)c1", "note": "[asciminib, N-[4-[chloro(difluoro)methoxy]phenyl] -6-[(3R)-3-hydroxypyrrolidin-1-yl]-5-(1H-pyrazol-5-yl)pyridine-3-carboxamide]", "values": [{"measurement": "SARS-CoV-2 infection and replication", "result": "no effect"}]}]}
